Measured values as given in paper PMC4336329 (PLoS ONE, 2015).
Hit rate of the full screen: of about 310,000 compounds, about 2,200 (0.71%) showed an effect of 50% or more. The effect is printed as a negative number. The list shows a part of the results.

Biological target: human ether-à-go-go-related gene (hERG) potassium channel (human, UniProt Q12809)
Experiment: primary screen, population patch clamp on CHO cells stably expressing hERG

human ether-à-go-go-related gene (hERG) potassium channel, sequence (Q12809 whole entry, looked up): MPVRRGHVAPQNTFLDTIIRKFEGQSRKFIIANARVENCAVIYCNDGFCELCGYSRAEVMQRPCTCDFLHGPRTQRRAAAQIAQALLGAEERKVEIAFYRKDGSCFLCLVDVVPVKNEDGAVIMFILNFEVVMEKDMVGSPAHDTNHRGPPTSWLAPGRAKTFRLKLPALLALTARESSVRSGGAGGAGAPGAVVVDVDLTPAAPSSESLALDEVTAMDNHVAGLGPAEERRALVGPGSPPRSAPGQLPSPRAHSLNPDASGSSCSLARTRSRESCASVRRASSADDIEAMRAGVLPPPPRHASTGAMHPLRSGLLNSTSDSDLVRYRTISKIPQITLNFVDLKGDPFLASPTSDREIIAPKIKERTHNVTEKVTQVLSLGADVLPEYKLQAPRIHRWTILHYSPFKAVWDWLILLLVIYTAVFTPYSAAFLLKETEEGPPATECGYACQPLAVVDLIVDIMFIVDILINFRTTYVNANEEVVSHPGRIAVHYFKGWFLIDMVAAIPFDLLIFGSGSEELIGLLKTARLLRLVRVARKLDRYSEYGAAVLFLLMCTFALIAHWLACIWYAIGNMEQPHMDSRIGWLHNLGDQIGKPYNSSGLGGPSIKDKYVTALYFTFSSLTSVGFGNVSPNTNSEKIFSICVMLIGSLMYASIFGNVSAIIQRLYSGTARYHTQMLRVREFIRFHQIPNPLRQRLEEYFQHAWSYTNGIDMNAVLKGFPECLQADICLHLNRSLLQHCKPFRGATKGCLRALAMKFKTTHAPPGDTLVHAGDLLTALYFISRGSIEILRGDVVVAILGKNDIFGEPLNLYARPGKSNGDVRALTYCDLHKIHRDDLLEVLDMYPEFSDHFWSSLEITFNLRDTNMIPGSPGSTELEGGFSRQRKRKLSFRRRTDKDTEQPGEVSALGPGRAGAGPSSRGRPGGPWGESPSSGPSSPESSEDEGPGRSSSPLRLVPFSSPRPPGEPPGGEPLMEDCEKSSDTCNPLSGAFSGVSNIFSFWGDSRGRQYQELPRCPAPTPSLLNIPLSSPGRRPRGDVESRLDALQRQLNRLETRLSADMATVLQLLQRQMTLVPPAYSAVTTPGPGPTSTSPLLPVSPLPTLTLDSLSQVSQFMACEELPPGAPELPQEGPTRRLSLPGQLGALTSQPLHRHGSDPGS

Row | SMILES | hERG current change (%, negative = inhibition) at 1uM
1 | CCOC(=O)C(C(=O)N1CCOCC1)C1CCCCC1 (stereo not shown) | 12.9%
2 | Fc1ccc(-[n+]2nc(Nc3ccccc3)sc2-c2c3ccccc3cc3ccccc23)cc1.[Cl-] | 15.6%
3 | CC(NC(=O)Cc1ccc(NS(=O)(=O)c2cccc(C(F)(F)F)c2)cc1)c1ccccn1 (stereo not shown) | 6.76%
4 | O=C(Nc1ccccc1)C1=C[C@H](c2coc3ccccc3c2=O)C[C@H](OCc2ccc(CO)cc2)O1 | 12.4%
5 | O=C(CSc1nc(-c2ccc(F)cc2)cs1)N1CCN(C(=O)c2ccco2)CC1 | -43.2%
6 | COc1ccccc1CNC(=O)CN(C)S(=O)(=O)c1ccc2c(c1)n(C)c(=O)c(=O)n2C | 12.8%
7 | CC(CN1CCOCC1)OC(=O)CCc1ccccc1 (stereo not shown) | 15.2%
8 | COc1cc(C)c(CN2CCN(c3ccccc3)CC2)cc1C | -1.98%
9 | O=C(Nc1ccc2nc(-c3cccs3)c(-c3cccs3)nc2c1)NC1CC1 | 4.21%
10 | CC(C)c1ccc(CNc2nc3nc4c(c(=O)n3[nH]2)CCC4)cc1 | 10.8%
11 | Cc1ccc(S(=O)(=O)Nc2ccc3[nH]ccc3c2)cc1 | 8.9%
12 | CC(=O)Nc1ccc(S(=O)(=O)NC(C(=O)O)C(C)C)cc1 (stereo not shown) | 2%
13 | O=C(Nc1c(C(=O)N2CCOCC2)cnn1-c1ccccc1)c1ccco1 | 5.57%
14 | COc1ccc(Oc2cc(Cl)nc(N)n2)cc1 | 1.62%
15 | CC(OC(=O)c1cccc(O)c1)C(=O)N(C)Cc1ccccc1 (stereo not shown) | 13.6%
16 | Cc1ccccc1-n1c(SCC(=O)N(C)C2CCS(=O)(=O)C2)nc2ccccc2c1=O (stereo not shown) | 7.14%
17 | CN(Cc1nccn1C)C(=O)c1cc(COc2ccc3ncccc3c2)on1 | 11.5%
18 | CCCCOc1ccc(Cl)cc1CSc1nnc(C)n1N | 0.126%
19 | CCCCc1ccc2[nH]cc(CCN)c2c1.Cl | 5.08%
20 | Fc1ccc(N2CCN(Cc3cnc(Oc4ccc(Br)cc4)s3)CC2)cc1 | 18.1%
21 | Cc1cc(S(=O)(=O)N2CCC(NC(=O)C34CC5CC(CC(C5)C3)C4)CC2)ccc1-n1cnnn1 | -7.66%
22 | COc1ccc(OC)c(NC(=O)CCN2C(=O)c3ccccc3C2=O)c1 | 17.2%

Row | SMILES | hERG current change (%, negative = inhibition) at 1uM
23 | CN(C)c1ccc(-c2n(C)c3ccccc3[n+]2C)cc1.[Cl-] | 6.13%
24 | CC(C)CCNC(=O)CCCCn1c(=O)[nH]c2ccsc2c1=O | 13.6%
25 | O=S(=O)(/N=C(/Nc1ccccn1)c1ccccc1)c1ccccc1 | 11.2%
26 | COC(=O)C1=C(C)N(C)C(=S)NC1c1ccc(OC)cc1OC (stereo not shown) | 4.08%
27 | CC(Oc1cccc(Cl)c1)C(=O)N(C)CC(=O)Nc1ccc(N2CCOCC2)cc1 (stereo not shown) | 10.6%
28 | Cc1ccc(Nc2nc3ccccc3n3nnnc23)cc1 | 12.1%
29 | COc1ccc(NC(=O)c2cccc(NS(=O)(=O)c3ccccc3)c2)cc1 | 8.95%
30 | Nc1c(N2CCCC2)c2ccccc2oc1=O | 6.58%
31 | O=C1NC2(CCCCCC2)Cc2ccccc21 | -0.636%
32 | Cn1ncc(Br)c1C(=O)NC1C2CC3CC(C2)CC1C3 (stereo not shown) | 11.1%
33 | CC(=O)c1ccc(NC(=O)CN2CCN(S(=O)(=O)c3ccc4ccccc4c3)CC2)cc1 | 14.9%
34 | CSc1ccccc1NC(=S)Nc1ccccc1C(F)(F)F | 6.68%
35 | COc1ccc2oc(C(=O)OCC(=O)Nc3ccc(C(=O)N(C)C)cc3)c(C)c2c1 | 7.12%
36 | CCOc1ccc2nc(COC(=O)c3cccs3)c(C(=O)c3ccccc3)[n+]([O-])c2c1 | 9.01%
37 | CCN1C(=O)/C(=C\N2CCN(C)CC2)SC1=S | 14.2%
38 | CC(C)C(=O)Nc1cccc(-c2cn3ccccc3n2)c1 | 9.5%
39 | O=C(c1ccc2c(c1)[nH]c(=S)n1c3ccccc3nc21)N1CCN(c2cccc(Cl)c2)CC1 | 2.32%
40 | COc1cc(Br)cc(CN2CCN(C/C=C/c3ccccc3)CC2)c1O | -25.6%
41 | CCOC(=O)C1CCN(C(=O)CSc2nccc(C)n2)CC1 | -5.8%
42 | Cc1ccc(CSCCNC(=O)c2ccc(C)cc2)cc1 | 11.9%
43 | CCOc1cc(N2CCOCC2)c(OCC)cc1NC(=O)c1oc2ccccc2c1C | 11.9%
44 | CC(=O)c1ccc(NC(=O)CSc2nccn2CCc2ccccc2)cc1 | 8.7%

Row | SMILES | hERG current change (%, negative = inhibition) at 1uM
45 | CC(C)(C)c1ccc(/C=C2\Oc3cc(O)ccc3C2=O)cc1 | 10.9%
46 | Cc1ccc(S(=O)(=O)Nc2ccccc2-c2ccccc2)cc1 | 16.1%
47 | COC(=O)C(Cc1c[nH]c2ccccc12)NC(=O)c1cncc(Br)c1 (stereo not shown) | 19.4%
48 | Cc1ccc(NC(=O)COc2ccc(/C=N/NC(=O)CSCc3ccccc3)cc2)cc1 | 1.25%
49 | COc1ccc(C(=O)Nc2nnc(S(=O)(=O)Cc3ccccc3)s2)cc1 | 14.4%
50 | O=C(NN1C(=O)C2C3c4ccccc4C(c4ccccc43)C2C1=O)C1CC1 (stereo not shown) | 13.1%
51 | C=CCn1cnc2scc(-c3ccc(C)cc3)c2c1=O | 0.0053%
52 | COc1ccc(CNC(=O)CCc2nnc3ccc(N4CCC5(CC4)OCCO5)nn23)cc1 | 0.274%
53 | N#Cc1ccc(OCC(=O)OCC(=O)Nc2sccc2C(N)=O)cc1 | 0.865%
54 | OC(COc1ccc(F)cc1)CN1CCN(CC(O)COc2ccc(F)cc2)CC1 (stereo not shown) | -51.1%
55 | CCOc1ccc(C(=O)CCC(=O)NNC(=O)c2ccncc2)cc1 | 14%
56 | CC(=O)c1cccc(NC(=O)C2CCN(S(C)(=O)=O)CC2)c1 | 10.7%
57 | COc1cc(CN2CCN(Cc3ccco3)CC2)cc(OC)c1.O=C(O)C(=O)O | 9.72%
58 | COc1ccccc1NC(=O)c1ccc(-n2cncn2)nc1 | 6.46%
59 | NS(=O)(=O)c1ccc(NC(=O)COC(=O)/C(=C/c2cccs2)c2cccs2)cc1 | 9.44%
60 | Cc1nn(C)c(C)c1NC(=O)CC12CC3CC(CC(C3)C1)C2 | 6.62%
61 | COC(=O)C1C2C=CC3(CN(c4cccc(Cl)c4)C(=O)C13)O2 (stereo not shown) | 7.47%
62 | CC(C)(C)NC(=O)CN(C(=O)c1snc(C(=O)NC2CCCCC2)c1N)c1ccccc1F | 17.9%
63 | O=C(CN1CCOCC1)NCCc1ccccc1 | 14.7%
64 | CC(=O)c1ccc(OCC(=O)c2cc(C)n(-c3ccc4c(c3)OCO4)c2C)cc1 | 6.25%
65 | CC(=O)c1cccc(S(=O)(=O)Nc2ccc(N3CCOCC3)cc2)c1 | 13.7%
66 | Cc1cc(S(=O)(=O)N2CCOCC2)ccc1OCC(=O)N1CCOCC1 | 15.2%

Row | SMILES | hERG current change (%, negative = inhibition) at 1uM
67 | C/C(=N\Nc1cc(N2CCOCC2)ncn1)c1ccc(O)cc1 | 11.4%
68 | O=C(NCc1ccccc1)C1CCCN(S(=O)(=O)c2cccs2)C1 (stereo not shown) | 6.69%
69 | O=C1N/C(=C/c2ccco2)C(=O)N1Cc1ccccc1F | 7.02%
70 | Cc1cc(C)nc(NS(=O)(=O)c2ccc(NC(=O)CSc3nc(-c4ccccc4)c(C#N)c(=O)[nH]3)cc2)n1 | 16.8%
71 | COc1ccccc1N1CCN(C(=O)c2cn(Cc3ccccc3)nc2-c2cccnc2)CC1 | 9.19%
72 | CCOC(=O)N1CCC(NC(=O)C2CCN(C(=O)N3CC(C)Oc4ccccc43)CC2)CC1 (stereo not shown) | 1.5%
73 | COc1ccc(Cn2c(-c3ccccc3)nc3c(c(=O)c4ccccc4n3C)c2=O)cc1 | -7.94%
74 | Cn1c(O)c(/C=C2\C=NN=C2c2ccccc2)sc1=S | 4.34%
75 | Brc1ccccc1Cn1c(-c2cscn2)nc2ccccc21 | -0.319%
76 | CCOC(=O)C1=NN(C(C)=O)C2(CC(=O)N(c3cc(C)cc(C)c3)C2=O)C1 (stereo not shown) | 9.06%
77 | O=C(NCc1ccco1)C1CC(=O)N(c2ccc(Cl)cc2)C1 (stereo not shown) | 13.6%
78 | Cc1ccc(-c2ccc(SCC(=O)N3CCc4ccccc43)nn2)cc1 | 1.58%
79 | Cc1ccc(CNC(=O)CCCCn2c(=O)[nH]c3ccsc3c2=O)cc1 | 7.84%
80 | O=C(c1cccs1)N1CCCC(c2nc3c(nnn3Cc3ccccc3Cl)c(=O)[nH]2)C1 (stereo not shown) | 2.03%
81 | Cc1nc2ccc(NS(=O)(=O)c3c(C)c(C)cc(C)c3C)cc2s1 | 10.9%
82 | COc1ccc(N2CCN(C(c3ccco3)c3sc4nc(C)nn4c3O)CC2)cc1 (stereo not shown) | 1.12%
83 | Cl.O=C(O)c1ccc2nc(CO)[nH]c2c1 | 8.97%
84 | N#CCOC(=O)C1CCN(S(=O)(=O)c2ccc3c(c2)OCCO3)CC1 | 12.4%
85 | CC1CCCCN1C(=O)C(=O)c1cn(CC(=O)N2CCCC2)c2ccccc12 (stereo not shown) | 12.8%
86 | COc1cc(/C=N/Nc2ccccc2C(F)(F)F)ccc1O | 6.57%
87 | O=C(NC1CC1)c1ccc2snnc2c1 | 6.14%
88 | O=C(COC(=O)c1ccncc1)c1ccc(Cl)c(Cl)c1 | 11%
